# According to PubChem BioAssay AID1454 (National Center for Advancing Translational Sciences (NCATS), 2008):
# The whole screen tested about 130,000 compounds, of which about 550 (0.42%) were called active. The inconclusive results got no clear call from the source; some entries with a clear call stand among them for comparison. The call rests on the fitted dose curve; in most records, active means well fitted inhibition curve with a large enough effect; inconclusive means small, poorly fitted or top-dose-only effect, or effect the other way; inactive means flat fitted curve, though single readings scatter. No potency is given beside an inconclusive call; the fits are too rough.
# Assay: qHTS Assay for Inhibitors of the ERK Signaling Pathway using a Homogeneous Screening Assay; Stimulation with EGF; further: nearly all actives have a fitted effect of over 55% in size
# Conditions: HEK293-V1b, EGF-stimulated phospho-ERK AlphaScreen
# In short: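 Concentration-response of compounds against EGF-driven ERK phosphorylation in V1b-expressing HEK293 cells; 30 min preincubation, 5 min EGF, AlphaScreen detection; Normalized to DMSO basal and 25 nM EGF.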
# Potency means the concentration at half of the fitted maximal effect; tags describe the fitted curve by direction and shape.
row,SMILES,Potency
1,COC(=O)C1=CN(Cc2cccs2)C=C(C(=O)OC)C1c1ccc(OC)cc1OC,"inconclusive [activator, single point]"
2,COc1cc(OC)c2c(-c3ccccc3)cc(=O)oc2c1C(CCN1CCN(c2ccccc2)CC1)c1ccc(N(C)C)cc1 (centres undefined),"inconclusive [inhibitor, partial curve]"
3,O=C1C2C3C=CC(C4CC34)C2C(=O)N1/N=C/c1ccc(-c2ccc([N+](=O)[O-])cc2)o1 (centres undefined),"inconclusive [inhibitor, partial curve, poor fit]"
4,Cc1cc(C)c(NS(=O)(=O)c2ccc(NC(=O)/C=C/C(=O)O)cc2)c(C)c1,inactive
5,Cc1nn2c(C(F)(F)F)c3c(nc2c1-c1ccccc1)CCC3,"inconclusive [inhibitor, single point]"
6,O=C(O)C1CC[C@@](C(=O)O)(c2ccccc2)c2ccccc21 (some centres undefined),inactive
7,COc1ccc(-c2nc3cnc(N4CCNCC4)nc3n(CCc3ccccc3)c2=O)cc1,inactive
8,NCCC[C@@H](CC(=O)N[C@@H]1CCNC[C@H]1C(=O)N[C@H](CC(=O)N[C@@H](CCC(=O)O)CC(=O)O)Cc1ccccc1)NC(=O)C[C@H](CO)NC(=O)[C@@H]1CCCC[C@H]1N,inactive
9,CC(C)NC(=O)c1ccc(C(C)C)cc1,inactive
10,CCOC(=O)C1CCN(c2c(Nc3cc(C)cc(C)c3)c(=O)c2=O)CC1,"inconclusive [inhibitor, partial curve, poor fit]"
11,CN(C)c1ccc(/C=C/c2ccc3ccccc3n2)cc1,"inconclusive [inhibitor, single point]"
12,COc1cc(/C=C2\SC(=S)N(Nc3ccccc3)C2=O)ccc1O,"inconclusive [inhibitor, single point]"
13,O=C(/C=C/c1ccc(Cl)cc1)NC1CC2CCC1C2 (centres undefined),"inconclusive [inhibitor, partial curve, poor fit]"
14,CC1=NOC(=O)/C1=C\c1ccc(-c2ccc(Br)cc2)o1,"inconclusive [inhibitor, partial curve]"
15,CC1(C)Cc2ccccc2C(/C(=N\Nc2cccc(Cl)c2)C(N)=O)=N1,"inconclusive [inhibitor, partial curve]"
16,O=C1ON=C(c2ccccc2)/C1=C/c1ccc(OS(=O)(=O)c2ccccc2)cc1,inactive
17,COc1cc(SSc2cc(OC)cc([N+](=O)[O-])c2N)c(N)c([N+](=O)[O-])c1,"inconclusive [inhibitor, single point]"
18,CSCCC(NC(=O)c1ccc(Cl)cc1Cl)C(=O)OCC(N)=O (centres undefined),"inconclusive [inhibitor, single point]"
19,Cc1ccc(Nc2c(F)c(F)c(F)c(F)c2C(=O)O)c(C)c1,"inconclusive [inhibitor, partial curve]"
20,Cc1ccc2nc(-c3ccccn3)c(Nc3ccccc3C)n2c1,"inconclusive [inhibitor, single point]"
21,Cc1c(NC(=O)/C(C#N)=C/c2ccc(-c3cccc(Cl)c3)o2)c(=O)n(-c2ccccc2)n1C,"inconclusive [inhibitor, single point]"
22,CC(C)C[C@H](NC(=O)c1[nH]cnc1C(=O)Nc1ccc(CNC(=O)OC(C)(C)C)cc1)C(=O)OCc1ccccc1,inactive

row,SMILES,Potency
1,Oc1cc2c(cc1C(c1ccc(Br)cc1)N1CCCC1)OCO2 (centres undefined),inactive
2,Cn1cnc(S(=O)(=O)Nc2ccc(OC(F)(F)F)cc2)c1,"inconclusive [inhibitor, single point]"
3,COC1=CC(=O)C=C(OC)C1=O,"inconclusive [inhibitor, single point]"
4,COc1ccccc1Oc1ccc(Oc2ccccc2OC)cc1,"inconclusive [activator, partial curve]"
5,COC(=O)C1OC(=O)C2OC23[C@]2(C)C(OC(C)=O)CC4C(C)(C)C(=O)CC[C@]4(C)C2CC[C@@]13C (some centres undefined),inactive
6,NC[C@@H]1O[C@@H](O[C@H]2[C@H](O)[C@H](O[C@@H]3O[C@H](CO)[C@@H](O)[C@H](N)[C@@H]3O)[C@@H](N)C[C@H]2N)[C@H](N)C[C@@H]1O,inactive
7,O=C(OCC(=O)N1CCc2ccccc21)c1c2c(nc3ccccc13)CCCCC2,"inconclusive [inhibitor, single point]"
8,CN1C(=S)N(c2cccnc2)C(=O)/C1=C\c1ccc(N(C)C)cc1,"inconclusive [inhibitor, partial curve]"
9,Oc1ccccc1CN(Cc1ccco1)CC(O)COCc1ccc(Cl)cc1 (centres undefined),"inconclusive [inhibitor, single point]"
10,Cc1cccn2cc(COc3ccc(-c4ccccc4)cc3)nc12,"inconclusive [inhibitor, single point]"
11,CCc1ccc2c(c1)C(c1ccc(N3CCOCC3)cc1)=NNC(c1ccncc1)=N2,"inconclusive [inhibitor, single point]"
12,Cc1cc(-c2ccccc2)n2ncnc2n1,"inconclusive [inhibitor, full curve, poor fit]"
13,O=C1C(Cl)=C(Nc2ccc(O)cc2)C(=O)c2ccccc21,"inconclusive [inhibitor, single point]"
14,CCCN1C(=O)S/C(=C\c2ccc(N3CCOCC3)o2)C1=O,"inconclusive [inhibitor, partial curve]"
15,Cc1cc(C(=O)COc2ccc(C#N)cc2)c(C)n1-c1ccc2c(c1)OCO2,"inconclusive [inhibitor, single point]"
16,CC(OC(=O)CCc1nc2ccccc2c(=O)[nH]1)C(=O)NCc1ccc2c(c1)OCO2 (centres undefined),"inconclusive [inhibitor, single point]"
17,CCN(c1ccccc1)S(=O)(=O)c1ccc(Cl)c(NC(=O)CSc2nncs2)c1,inactive
18,Cc1cc(N(CCO)CCO)ccc1N=Nc1cc(F)ccc1F,"inconclusive [inhibitor, partial curve]"
19,CCCCCCCCCCCCCCCCOCC(COP(=O)([O-])OCC[N+](C)(C)C)OC (centres undefined),"inconclusive [inhibitor, single point]"
20,C(=N\N1CCN(c2ccccn2)CC1)/C1=C(N2CCOCC2)C(=C/c2ccccc2)/CC1,"inconclusive [inhibitor, single point]"
21,O=C(c1csnn1)N1CCC2(CC1)CN(c1ccccn1)C2,"inconclusive [inhibitor, single point]"
22,COc1ccc(N=Nc2cc(C)ccc2O)cc1,"inconclusive [inhibitor, single point]"

row,SMILES,Potency
1,CCCCNc1ccc(S(=O)(=O)c2cccc([N+](=O)[O-])c2)cc1[N+](=O)[O-],"inconclusive [inhibitor, partial curve]"
2,CCOC(=O)c1cc(Sc2ccccc2N)cc(C(=O)OCC)n1,"inconclusive [activator, full curve, poor fit]"
3,CCC(/C=C1\Sc2ccc(OC)cc2N1CC)=C\c1sc2ccc(OC)cc2[n+]1CCCS(=O)(=O)[O-],"inconclusive [inhibitor, partial curve]"
4,CC(=O)c1ccc(NC(=O)c2ccc(S(=O)(=O)c3ccccc3)cc2)cc1,"inconclusive [inhibitor, single point]"
5,NC(=O)CC(NC(=O)Cc1ccc(Br)cc1)c1ccc(NC2CCCCCC2)c([N+](=O)[O-])c1 (centres undefined),"inconclusive [inhibitor, partial curve]"
6,Cc1sc2ncnc(N)c2c1C,inactive
7,O=C(Nc1ccccc1-c1ccccc1NC(=O)c1ccco1)c1ccco1,inactive
8,O=C(O)CCc1cc(I)c(Oc2ccc(O)c(I)c2)c(I)c1,"inconclusive [inhibitor, single point]"
9,c1ccc(-c2nc3ccccn3c2NC2CCCC2)nc1,"inconclusive [inhibitor, single point]"
10,CCOC(=O)CCSc1nc(-c2ccccc2)cc(C(F)(F)F)n1,"inconclusive [activator, partial curve, poor fit]"
11,Cc1ccc(/C=N/n2c(COc3ccccc3)n[nH]c2=S)o1,"inconclusive [activator, partial curve, poor fit]"
12,Cc1ccc(-c2cc3cccc[n+]3cc2-c2ccc(C)cc2)cc1,inactive
13,Cn1/c(=N/N=C/c2ccccn2)sc2ccccc21,inactive
14,Cc1cc(C(=O)NC(=S)Nc2ccccc2N2CCCC2)ccc1[N+](=O)[O-],"inconclusive [inhibitor, partial curve]"
15,CCCOC(=O)CCCN1C(=O)/C(=C2\SC(=S)N(CCCC(=O)OCCC)C2=O)SC1=S,"inconclusive [inhibitor, full curve]"
16,CCOC(=O)Cc1csc(NC(=O)/C=C/c2ccc(OC)cc2)n1,"inconclusive [inhibitor, single point]"
17,O=c1cc(CN2CCc3ccccc3C2)nc2sccn12,"inconclusive [activator, full curve, poor fit]"
18,O=S(=O)(NCc1ccccc1)c1ccc(Br)c2nsnc12,"inconclusive [inhibitor, full curve, poor fit]"
19,Fc1ccc(Cn2cc(C(=S)N3CCOCC3)c3ccccc32)cc1,"inconclusive [inhibitor, partial curve, poor fit]"
20,CCOC(=O)c1c(NC(=O)CSc2cccc[n+]2[O-])sc(C(=O)Nc2ccccc2)c1C,"inconclusive [activator, full curve, poor fit]"
